Data: PMC4336329 (PLoS ONE, 2015)
Hit rate of the full screen: of about 310,000 compounds, about 2,200 (0.71%) showed an effect of 50% or more. The effect is printed as a negative number. This is one part of the list.

Target: human ether-à-go-go-related gene (hERG) potassium channel (human, UniProt Q12809)
Assay: primary screen, population patch clamp on CHO cells stably expressing hERG

Chain of human ether-à-go-go-related gene (hERG) potassium channel (Q12809 whole entry, looked up): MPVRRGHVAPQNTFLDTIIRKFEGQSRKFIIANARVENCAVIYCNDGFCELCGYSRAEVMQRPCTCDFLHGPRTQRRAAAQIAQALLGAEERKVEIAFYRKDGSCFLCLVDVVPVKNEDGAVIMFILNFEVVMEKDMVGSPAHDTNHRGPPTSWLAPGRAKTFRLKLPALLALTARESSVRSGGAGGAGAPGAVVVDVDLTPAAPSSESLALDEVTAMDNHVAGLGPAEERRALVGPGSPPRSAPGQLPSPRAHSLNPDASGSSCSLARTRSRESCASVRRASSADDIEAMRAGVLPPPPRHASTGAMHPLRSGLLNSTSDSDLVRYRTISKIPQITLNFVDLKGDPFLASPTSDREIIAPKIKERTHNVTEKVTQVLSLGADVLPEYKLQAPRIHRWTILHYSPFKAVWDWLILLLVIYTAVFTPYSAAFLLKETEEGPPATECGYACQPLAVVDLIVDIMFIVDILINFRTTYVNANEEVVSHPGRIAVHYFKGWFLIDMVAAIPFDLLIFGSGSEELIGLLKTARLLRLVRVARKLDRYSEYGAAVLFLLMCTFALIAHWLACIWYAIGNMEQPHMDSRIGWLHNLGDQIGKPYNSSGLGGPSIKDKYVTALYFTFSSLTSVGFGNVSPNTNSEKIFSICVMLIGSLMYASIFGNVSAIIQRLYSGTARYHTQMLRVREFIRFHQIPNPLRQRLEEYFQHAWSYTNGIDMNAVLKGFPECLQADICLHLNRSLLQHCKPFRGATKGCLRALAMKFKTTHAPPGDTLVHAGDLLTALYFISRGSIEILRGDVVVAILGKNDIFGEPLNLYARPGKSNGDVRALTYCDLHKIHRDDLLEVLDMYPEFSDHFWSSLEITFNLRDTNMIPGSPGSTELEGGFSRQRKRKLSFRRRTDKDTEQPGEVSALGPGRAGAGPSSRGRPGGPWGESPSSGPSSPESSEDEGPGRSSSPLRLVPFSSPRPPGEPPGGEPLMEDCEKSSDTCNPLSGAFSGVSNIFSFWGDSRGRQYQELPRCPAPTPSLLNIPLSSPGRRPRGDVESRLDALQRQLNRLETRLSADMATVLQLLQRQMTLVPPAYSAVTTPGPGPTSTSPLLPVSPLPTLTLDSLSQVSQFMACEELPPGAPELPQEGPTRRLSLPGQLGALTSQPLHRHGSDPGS

| Structure (SMILES) | hERG current change (%, negative = inhibition) at 1uM [%] |
| --- | --- |
| Cc1ccc(N2C(=O)CSC2c2ccc3c(c2)OCO3)cc1 (stereo not shown) | 13.2 |
| O=C(Nc1ccccc1C(=O)NC(Cc1c[nH]c2ccccc12)C(=O)O)c1ccccc1 (stereo not shown) | 9.02 |
| Clc1ccc2nc(-c3ccncc3)cc(-c3ccccc3)c2c1 | 19.6 |
| Cc1ccc(OCCCCCN2CCOCC2)c(Cl)c1 | 5.12 |
| O=C(NC(=S)Nc1ccc(Br)c(Cl)c1)C1CC1 | 13.7 |
| Fc1ccc(-c2csc3[n+]2CCS3)cc1.[Br-] | 7.76 |
| Cc1ccc(Cl)cc1N1CCN(C(=O)C2CCN(S(C)(=O)=O)CC2)CC1 | 4.38 |
| CC(=O)Nc1nc2ccccc2n1CCN1CCOCC1 | 7.92 |
| NC(=O)NCC12CC3CC(CC(C3)C1)C2 | 16.8 |
| Cc1ccc(C2N(c3ccccc3)C(=S)N3CCCN23)cc1 (stereo not shown) | 14.9 |
| COc1ccc(OC)c(N(C)S(=O)(=O)c2ccc3c(c2)N(C(C)=O)CCO3)c1 | 6.97 |
| O=C(OCC(=O)N(Cc1ccccc1)Cc1ccccc1)c1ccccc1O | 9.63 |
| COc1ccc(OC)c(N=c2oc3c(OC)cccc3cc2C(=O)NCc2ccco2)c1 | 8.21 |
| CC(C)(C)NC(=O)CN(C(=O)CS(=O)CC(=O)Nc1ccc(F)cc1)c1ccc(Cl)cc1 (stereo not shown) | 12.9 |
| COc1cccc(CN(C(=O)c2ccc([N+](=O)[O-])cc2)C2CCS(=O)(=O)C2)c1 (stereo not shown) | -16 |
| O=[N+]([O-])c1cccc2ccc(/C=C/c3ccc(Cl)cc3)nc12 | 1.88 |
| COc1cccc(-c2nnn(CC(=O)Nc3cc(OC)c(NC(=O)c4ccco4)cc3OC)n2)c1 | -4.1 |
| COc1cnc(-c2ccccn2)nc1Sc1ccc(Cl)cc1 | -0.893 |
| CC(=O)c1c(N)c(C#N)c(C)n1-c1ccc(Br)cc1 | 14.2 |
| CC(OC(=O)c1cc(=O)[nH]c2ccccc12)C(=O)NCc1ccccc1 (stereo not shown) | 15.9 |
| CCOC(=O)Cn1c(=O)c(F)cn(Cc2ccc(OC)c([N+](=O)[O-])c2)c1=O | 11.4 |
| Cc1ccc(NC(=O)COc2ccccc2C(=O)Nc2ccccc2)cc1Cl | 6.93 |
| CSc1n[nH]c(=O)n1C1CCCCC1 | 11.4 |

| Structure (SMILES) | hERG current change (%, negative = inhibition) at 1uM [%] |
| --- | --- |
| COc1ccc(NC(=O)N2CCCC(CCC(=O)N(C)CCc3ccccn3)C2)cc1 (stereo not shown) | 6.05 |
| CCC(=O)Nn1c(C2CCC2)nc2ccccc2c1=O | 14.3 |
| COc1ccc(CCNC(=S)Nc2ccccc2C)cc1 | 10.5 |
| Cc1ccnc2nc(C(=O)NCc3cccs3)nn12 | 7.81 |
| CSc1nnc(-c2ccco2)n1-c1ccccc1 | 10.6 |
| O=C(CCN1CCCCC1)Nc1ccccc1 | 10.5 |
| O=C(CN1C(=O)/C(=C/c2ccc(F)cc2)SC1=S)NC1CCS(=O)(=O)C1 (stereo not shown) | 20 |
| Cc1ccc(SCCC(=O)N/N=C/c2ccncc2)cc1 | 9.5 |
| CN1CCN(S(=O)(=O)c2cccc(C(=O)Nc3ccccc3N3CCCCC3)c2)CC1 | 20.4 |
| CC(OC(=O)Cc1ccc(Br)cc1)C(=O)NC1CCCCC1C (stereo not shown) | 2.35 |
| NC(=O)CCn1c2ccccc2c2ccccc21 | 3.45 |
| CCc1nc(SCC(=O)NC2CCCC2)c2c(=O)n(C)c(=O)n(C)c2n1 | 10.1 |
| Cc1ccc(NC(=O)C2Cc3ccccc3CN2C(=O)c2ccccc2)cc1Cl (stereo not shown) | 3.9 |
| CCCCN1C(=O)CC(Sc2ccccc2C(=O)O)C1=O (stereo not shown) | -1.56 |
| CCOC(=O)C1=C(c2ccccc2)OC(N)=C(C#N)C1c1cccnc1 (stereo not shown) | 6.5 |
| CCOc1ccccc1OCCCC(=O)NC1=NCCS1 | 11.8 |
| COc1ccc(-n2ccnc2SCC(=O)NO)cc1 | 11.1 |
| COc1ccc(NC(=O)C2CCCN(S(=O)(=O)c3c(C)[nH]c(=O)[nH]c3=O)C2)cc1 (stereo not shown) | -4.64 |
| Cc1ccc(Cn2nnc3c(=O)[nH]c(C4CCCN(S(=O)(=O)c5ccccc5)C4)nc32)cc1 (stereo not shown) | 9.16 |
| Nc1nc(SCCC(F)=C(F)F)n[nH]1 | 4.82 |
| CCOc1ccc(NC(=O)C2CCN(S(=O)(=O)c3cccs3)CC2)cc1 | 12.6 |
| CCc1cccc(CC)c1N(COC)C(=O)Cn1c(C(C)O)nc2ccccc21 (stereo not shown) | -4.09 |
| CCCNC(=O)CC1Sc2ccccc2NC1=O (stereo not shown) | 7.86 |
